PubChem BioAssay AID686971 (National Center for Advancing Translational Sciences (NCATS), 2013)
The whole screen tested about 360,000 compounds, of which about 7,500 (2.1%) were called active. Inconclusive means that the source gave no clear call. Such entries were picked first, then a sample of the others. Calls come from the whole dose curve; as a rule, active = well fitted cell-killing curve with a large enough effect; inconclusive = small, poorly fitted or top-dose-only effect, or effect the other way, or another doubt; inactive = no such curve, though single readings can be large or run the other way. Potencies of inconclusive entries are left out as doubtful fits.

Experiment: qHTS for induction of synthetic lethality in tumor cells producing 2HG: qHTS for the HT-1080-IDH1KD cell line;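 for activity, negative = toxicity: 0% = DMSO wells and -100% = cell-free medium wells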
Settings: HT-1080 IDH1 knockdown viability, ATP luminescence, 48 h; activity, negative = toxicity: at 46.1 µM (top of the series) unless noted
Outline: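 Assay cells: HT-1080 with IDH1 knockdown, 750 per well, RPMI/5% FBS. Exposure: 48 h at 37 °C following 2 h pre-incubation. Read: CellTiter-Glo luminescence; fitted concentration-response, curve class assigned.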
Potency is the fitted concentration of half-maximal effect; tags give direction and shape of the fitted curve.

SMILES | Potency | activity, negative = toxicity
N#Cc1ccc(-c2ccc(OCC3CNC(=O)O3)cc2)cc1 (stereo not drawn) | inactive | –
O=C(NCc1ccco1)/C(=C/c1ccc(Br)cc1)NC(=O)c1ccco1 | inconclusive [cytotoxic, single point] | –
CCc1ncc(C(O)c2ccc(Cl)cc2)n1Cc1ccccc1 (stereo not drawn) | inconclusive [cytotoxic, single point] | –
Cc1ccc(NC(=O)C2CCCN(S(=O)(=O)c3c(C)noc3/C=C/N(C)C)C2)cc1F (stereo not drawn) | inconclusive [cytotoxic, single point] | –
COc1cccc(C(=O)N/N=C(/c2ccccc2)c2ccccn2)c1 | active: 0.891 µM | –
CCOc1ccc(N(Cc2ccc(OC)cc2)C(=O)c2ccco2)cc1 | – | inconclusive: -33% [cytotoxic]
O=C(NC(=S)NCCN1CCOCC1)c1cccc(Cl)c1 | inconclusive [cytotoxic, single point] | –
O=[N+]([O-])c1ccccc1S(=O)(=O)Nc1cccc2cccnc12 | active: 11.6 µM | –
COc1ccc(C(=O)/C=C/Nc2ccc([N+](=O)[O-])cc2)cc1 | inactive | –
CCNc1oc(/C=C/c2ccc(OCC)cc2)nc1C#N | inconclusive [cytotoxic, single point] | –
CCn1c2ccccc2c2cc(NC(=O)c3cccc(OC)c3)ccc21 | inconclusive [cytotoxic, single point] | –
Cc1cc2nc(CCN(C(=S)NCC(C)C)C3CCCC3)[nH]c2cc1C | inconclusive [cytotoxic, single point] | –
O=C(CCc1ccc(S(=O)(=O)N2CCOCC2)cc1)N/N=C/c1ccc(O)c(O)c1O | inactive | –
CCOC(=O)[C@]12CCCC=C1N(Cc1cccc3ccccc13)C(=O)[C@H](CC(=O)NCc1cccs1)C2 | inconclusive [cytotoxic, single point] | –
Cc1ccc(CNc2nc(NCC3CC3)nc3ccsc23)c(C)c1 | active: 16.4 µM | –
NCCCSC1=NCCCN1 | inconclusive [cytotoxic, single point] | –
Nc1nc(Cl)nc2c1ncn2[C@@H]1O[C@H](CO)[C@@H](O)[C@H]1O | inconclusive [cytotoxic, single point] | –
O=C(CCl)NCCCCCCCCCNC(=O)CCl | active: 14.6 µM | –
COc1cc(CN2CCCC(CO)(Cc3cccc(Cl)c3)C2)cc2c1OCO2 (stereo not drawn) | active: 16.4 µM | –
S=c1[nH]cnc2scc(-c3ccc(Cl)cc3)c12 | inconclusive [cytotoxic, partial curve] | –
O=C(Nc1ccccc1-c1nc2ccccc2s1)c1ccc(Br)o1 | inactive | –
COc1cc(-c2nnc(SCC(=O)c3ccc(C)cc3)o2)cc(OC)c1OC | inconclusive [cytotoxic, single point] | –
CSC1=N/C(=C\c2cccc(Cl)c2)C(=O)N1N(C)C | inactive | –
CN(C)S(=O)(=O)N1CCc2ccc(NC(=O)c3ccc(C(F)(F)F)cc3)cc2C1 | inconclusive [cytotoxic, single point] | –
COc1ccccc1N(CC(O)CN1CCCCC1)S(=O)(=O)c1ccc(C)cc1 (stereo not drawn) | inactive | –

SMILES | Potency | activity, negative = toxicity
Cc1ccc(C(=O)NCc2ccco2)cc1Br | inconclusive [cytotoxic, single point] | –
CC(=O)Nc1ccc(C)c(NS(=O)(=O)c2cccc(C(F)(F)F)c2)c1 | inactive | –
CC(=O)c1cccc(-c2ccnc3c2CC(C(=O)NCc2ccccc2)O3)c1 (stereo not drawn) | inconclusive [cytotoxic, full curve, poor fit] | –
Cn1c(N)c(-c2ccccc2)c2ccc([N+](=O)[O-])cc2c1=O | inconclusive [cytotoxic, partial curve] | –
Cc1ccc(-c2nnn(CC(=O)N(CC(=O)NCc3ccccc3)c3cccc(C)c3C)n2)o1 | inactive | –
CCc1c(-c2ccccc2OC)ncn1Cc1cccc(-c2ccccc2)c1 | active: 8.2 µM | –
O=S1(=O)CC(O)C(O)CS1 (stereo not drawn) | inconclusive [rising, single point] | –
Cc1cc(C(C)(C)C)oc1C(=O)N(CC(=O)NC1CCCC1)c1ccc(F)cc1 | inconclusive [cytotoxic, single point] | –
Cn1cnc([N+](=O)[O-])c1Sc1ncnc2nc[nH]c12 | active: 4.11 µM | –
Cc1cn([C@H]2C[C@H](O)[C@@H](CNCc3cnc(N4CCOCC4)s3)O2)c(=O)[nH]c1=O | inactive | –
c1ccc(-c2cc3c(N4CCCCC4)ncnc3s2)cc1 | inactive | –
COc1ccc(C(=O)C[n+]2cc(-c3ccc(OC)cc3)n3c2CCCC3)cc1 | inconclusive [cytotoxic, partial curve] | –
O=C(NNC(=O)c1ccccc1O)c1ccc(S(=O)(=O)Nc2ccccc2F)cc1 | inconclusive [cytotoxic, single point] | –
CC(C)c1ccc(-c2noc(C3CCCN(C(=O)c4ccc(F)cc4F)C3)n2)cc1 (stereo not drawn) | inconclusive [cytotoxic, single point] | –
COc1cc(/C=C/C(=O)c2ccc(C)cc2)ccc1OCC#N | active: 20.6 µM | –
CC(C)(C)C1CCC(OCC(O)CN2CCN(c3ccccc3)CC2)CC1 (stereo not drawn) | inconclusive [cytotoxic, single point] | –
CCc1ccc(CN2CCN(S(=O)(=O)Cc3ccccc3)CC2)cc1 | inactive | –
N/C(=N\c1nc2c(c(=O)[nH]1)CCC2)Nc1cccc2ccccc12 | inactive | –
Nc1cc(Cl)ccc1Oc1ccc(Cl)cc1 | inconclusive [cytotoxic, single point] | –
COc1c(C(=O)Nc2ccc(CN3CCOCC3)cc2)cc2ccccc2c1Br | inconclusive [cytotoxic, partial curve] | –
CCN(CC)c1ncnc2c1[nH]c1ccccc12 | inactive | –
CC(C)(C)C1CCC(=NNc2ncc(C(F)(F)F)cc2Cl)CC1 (stereo not drawn) | inconclusive [cytotoxic, single point] | –
Cc1c(Cl)cccc1NC(=O)N1CCCN(c2nc(-c3ccccc3)ns2)CC1 | inconclusive [cytotoxic, partial curve] | –
CCOC(=O)c1c(-c2ccccc2)nnn1-c1nc(OCC)nc(N2CCCCC2)n1 | inconclusive [cytotoxic, single point] | –
COc1ccc(N(C(=O)/C=C/C(=O)Nc2cc(C)on2)C(C(=O)NC2CCCC2)c2ccccc2C)cc1 (stereo not drawn) | inconclusive [cytotoxic, single point] | –

SMILES | Potency | activity, negative = toxicity
CC(C)OP(=O)(OC(C)C)C1(NS(=O)(=O)c2ccc(Cl)cc2)C=C(Cl)C(=O)C(Cl)=C1 | inconclusive [cytotoxic, single point] | –
CCCCCn1c(=O)[nH]c2cc(C(=O)NCCCN(CC)CC)ccc2c1=O | inconclusive [cytotoxic, single point] | –
CCNc1nc(N)nc(-c2cc(Cl)ccc2O)n1 | active: 23.1 µM | –
COc1ccccc1-n1c(SCC(=O)Nc2ccc(Cl)cc2)nc(O)c(Cc2ccccc2)c1=O | inactive | –
c1cc2cc(-c3c(-c4ccc5c(c4)OCO5)noc3-c3ccsc3)ccc2[nH]1 | – | inconclusive: -32.8% [cytotoxic]
CCn1c(=O)cc(OCC(=O)N2CCCC2)c2ccccc21 | inactive | –
COc1cc(C(=O)Nc2ccc(C(=O)c3ccncc3)cc2)cc(OC)c1OC | inconclusive [cytotoxic, single point] | –
CCCc1[nH]nc2c1C(c1ccc(Br)s1)C(C#N)=C(N)O2 (stereo not drawn) | inconclusive [cytotoxic, single point] | –
CS(=O)(=O)/C(C#N)=C/c1c(-c2ccccc2)nc2n1CCS2 | inactive | –
Cc1ccc(S(=O)(=O)Oc2cc(N)c3c(n2)CCC3)cc1 | inconclusive [rising, partial curve] | –
CSc1ccc(C(=O)C2CCCN(Cc3cccn3-c3cccnc3)C2)cc1 (stereo not drawn) | inactive | –
CCOC1CCCc2oc(-c3ccc(OC)cc3)c(C#CCCO)c21 (stereo not drawn) | inconclusive [cytotoxic, single point] | –
O=C(/C=C/c1cc(Br)ccc1O)c1ccco1 | active: 9.2 µM | –
Cc1ccc(S(=O)(=O)NC(Cc2ccccc2)C(=O)O)cc1C (stereo not drawn) | inactive | –
CC(=O)c1cc(C(=O)N2CCc3c([nH]c4ccccc34)C2CC(C)C)[nH]n1 (stereo not drawn) | inconclusive [cytotoxic, partial curve] | –
N#C/C(=C\c1ccc(-c2ccc(F)cc2)o1)C(=O)Nc1nc(-c2cccs2)cs1 | inconclusive [cytotoxic, single point] | –
Fc1ccc2c(c1)C1OCCCC1C(c1ccccc1)N2 (stereo not drawn) | inconclusive [cytotoxic, single point] | –
O=C(Cc1ccccc1)NCC(=O)OCC(=O)c1ccc(OC(=O)c2ccccc2)cc1 | inconclusive [cytotoxic, single point] | –
CNc1nc(NCC2CCCCC2)c2sccc2n1 | active: 23.1 µM | –
O=C(NCc1ccc(F)cc1)c1cc2n(n1)C(C(F)(F)F)CC(C1CC1)N2 (stereo not drawn) | inactive | –
Clc1ccc(/C=N/NC2=Nc3cccc4cccc2c34)cc1 | inconclusive [cytotoxic, single point] | –
COc1ccc(C2CC(c3ccccc3)=NN2c2ccc(C(N)=O)cc2)cc1 (stereo not drawn) | inconclusive [cytotoxic, single point] | –
CCc1nc(N2CCCC(C)C2)c2oc3ccccc3c2n1 (stereo not drawn) | inconclusive [cytotoxic, single point] | –
